The whole screen tested about 16,000 compounds, of which about 120 (0.75%) were called active. Not shown: some 4% with an inconclusive outcome. The call rests on the fitted dose curve; in most records, active means well fitted inhibition curve with a large enough effect; inconclusive means small, poorly fitted or top-dose-only effect; inactive means no such curve, though single readings can be large or run the other way. The list shows a part of the results.
The compounds below were run against Rap guanine nucleotide exchange factor 3 (Homo sapiens) (UniProt O95398) (assay: Validation qHTS for antagonist of cAMP-regulated guanine nucleotide exchange factor 3 (EPAC1)). Conditions: EPAC1 Rap1B-BODIPY-GDP exchange, fluorescence; series mostly up to 150 µM; activity change, negative = inhibition: at the top concentration.
Method in brief: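 EPAC1 (100 nM) mixed with 250 nM RAP1B-BODIPY-GDP and 50 uM GDP; compounds in concentration series, 5 min at room temperature. Fluorescence (ex 480/em 540 nm) read every 5 min for 30 min; normalized to ATA control and DMSO.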
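Further: plate controls were DMSO for no effect and ATA control for full effect; nearly all actives have a fitted effect of over 75% in size.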

UniProt O95398, sequence (O95398 whole entry, looked up): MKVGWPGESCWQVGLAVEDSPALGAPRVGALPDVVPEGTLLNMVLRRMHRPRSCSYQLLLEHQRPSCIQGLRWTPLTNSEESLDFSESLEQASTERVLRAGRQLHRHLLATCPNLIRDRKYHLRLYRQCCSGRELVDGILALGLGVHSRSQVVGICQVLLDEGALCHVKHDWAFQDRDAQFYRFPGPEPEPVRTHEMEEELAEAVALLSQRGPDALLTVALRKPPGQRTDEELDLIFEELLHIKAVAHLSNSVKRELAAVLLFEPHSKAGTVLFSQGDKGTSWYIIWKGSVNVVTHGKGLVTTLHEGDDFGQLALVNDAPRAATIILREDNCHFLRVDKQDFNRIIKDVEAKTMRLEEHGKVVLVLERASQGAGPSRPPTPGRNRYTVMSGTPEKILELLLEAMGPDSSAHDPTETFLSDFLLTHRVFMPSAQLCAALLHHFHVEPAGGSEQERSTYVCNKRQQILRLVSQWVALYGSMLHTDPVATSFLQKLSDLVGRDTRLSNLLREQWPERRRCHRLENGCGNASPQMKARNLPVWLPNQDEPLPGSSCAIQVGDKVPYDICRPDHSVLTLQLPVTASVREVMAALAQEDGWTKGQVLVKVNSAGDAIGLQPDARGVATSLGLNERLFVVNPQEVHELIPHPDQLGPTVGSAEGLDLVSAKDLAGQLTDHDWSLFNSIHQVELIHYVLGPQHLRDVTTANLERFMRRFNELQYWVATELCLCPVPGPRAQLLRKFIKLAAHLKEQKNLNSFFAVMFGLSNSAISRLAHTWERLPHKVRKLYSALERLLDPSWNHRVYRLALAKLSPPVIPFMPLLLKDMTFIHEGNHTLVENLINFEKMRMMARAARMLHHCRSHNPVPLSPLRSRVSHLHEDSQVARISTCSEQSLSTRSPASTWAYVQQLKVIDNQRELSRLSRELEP

Activity change, negative = inhibition, inactive:
COc1cccc(Cn2c(=O)c(CCc3ccccc3)nc3cnc(OC)nc32)c1 15%
CC(C)C1=CC2=CC[C@@H]3[C@](C)(CCC[C@@]3(C)C(=O)O)[C@H]2CC1 18.1%
COc1cccc(-c2cncnc2Nc2ccccc2)c1 18.4%
COc1ccccc1CNc1cc(-c2ccccc2Cl)ncn1 -19.8%
CN(C)c1ncc2nc(-c3cccs3)c(=O)n(C[C@H]3CCCO3)c2n1 33.1%
CNC(=O)[C@H](Cc1c[nH]c2ccccc12)NC(=O)[C@@H](CC(=O)NO)CC(C)C
COc1cc(O)c2c(=O)cc(-c3ccccc3)oc2c1 11.6%
CC(C)C[C@@H](COc1ccccc1)N1CCN(CCc2ccccc2)CCC1=O -6.14%
COc1ccc(OC)c(-c2ccc(O)c(CN3CCc4c([nH]c5ccccc45)C3)c2)c1 -6.49%
c1ccc(CNc2ccnc(-c3ccoc3)n2)cc1 23.9%
CC(=O)OCC(=O)[C@@]1(O)CC[C@H]2[C@@H]3CCC4=CC(=O)CC[C@]4(C)C3=CC[C@@]21C 18.9%
COC(=O)CNC(=O)C(=O)OC 22.7% [at 15.3 µM]
COCCn1c(=O)c(-c2ccc(F)cc2)nc2cnc(Oc3ccccc3)nc21 15.1%
COC(=O)[C@H]1Cc2c([nH]c3ccccc23)CN1C(=O)COc1ccc2c(C)cc(=O)oc2c1 -0.141%
COC(=O)c1cn([C@@H]2C[C@@H](C(=O)N3CCCCCC3)N(Cc3cc4ccccc4s3)C2)nn1 12.2%
C=Nc1ccc(/C=C/c2ccnc3ccccc23)cc1 15.3%
CN(C)c1nc(-c2ccccc2C(F)(F)F)nc2ccccc12 11.8%
Oc1ccc(OCc2ccccc2)cc1 1.65% [at 75.8 µM]
COc1cc(NS(C)(=O)=O)ccc1Nc1c2ccccc2nc2ccccc12
CN1c2c(nc(N)[nH]c2=O)NCC1CNc1ccc(C(=O)NC(CCC(=O)O)C(=O)O)cc1 (stereo unspecified) 11.9%
CCN1CCC[C@H]1CNC(=O)c1c(OC)ccc(Br)c1OC
O=C(C[N+]12CCCc3cccc(c31)CCC2)c1ccc2ccccc2c1 7.52%
C#CCCCCCCCCCCCc1ccco1 4.7%
CC(NC(=O)c1cc(F)ccc1F)c1nnc2n1CCN(Cc1ccco1)CC2 (stereo unspecified) 9.66%
O=C1C2CC3CC1CC(O)(C3)C2 -7.38%
O=[n+]1ccn([O-])c2ccccc21 12.2%
CS(=O)(=O)N1CCC2(CCCN(C(c3ccccc3)c3ccccc3)C2)CC1 -11.7%
COCCN1CCN(C(=O)c2cnn(-c3nccc(-c4ccccc4F)n3)c2-c2ccco2)CC1 11.9%
COc1ccc2ccccc2c1CN1CCOc2ccc(CN3CCN(CCO)CC3)cc2C1 1.83%
COC(=O)C1=COC(O[C@H]2OC(CO)[C@H](O)C(O)C2O)[C@H]2C1C(=O)C[C@@H]2C (stereo partly specified) 10.7%
N=C(N)S/C=C\C(=O)O
Cc1nnc(NS(=O)(=O)c2ccc(N)cc2)s1
COc1ccccc1-c1ccnc(-n2ncc(C(=O)N(C)C(C)c3nc(C)cs3)c2C2CC2)n1 (stereo unspecified) 12.8%
COc1ccc2c(c1)CCc1cnc(-n3ncc(C(=O)NC4CCOC4)c3C3CC3)nc1-2 (stereo unspecified) 1.5%
COc1ccccc1-c1cncnc1N(C)Cc1ccco1 6.95%
CCC1CN(CCNC(=O)c2cccnc2OC)Cc2cc(OC)ccc2O1 (stereo unspecified) 6.61%
O=C(Nc1ccccc1)N1CCCC2(CCN(C(=O)c3cc(C(F)(F)F)cc(C(F)(F)F)c3)CC2)C1 -11%
CN(C)c1ccc(/C=C2/C(=O)Nc3ccccc32)cc1 -18.9%
COc1cc(=O)n2c(c1C(=O)NC(C)c1ccco1)CCN(C(=O)c1ccccc1SC)CC2 (stereo unspecified) 13.1%
Clc1ccccc1-c1cc(NCCN2CCOCC2)ncn1 1.54%
O=C(C[N+]12CN3CN(CN(C3)C1)C2)c1ccc(I)cc1 10.1%
CC1CC(OC(=O)C(O)c2ccccc2)CC(C)(C)N1C (stereo unspecified)
OC[C@H]1O[C@@H](n2cnc3c(NCc4ccco4)ncnc32)[C@H](O)[C@@H]1O
CC(C)CCOC(=O)c1ccc(N(C)C)cc1 4.17%
COCC(=O)Nc1cc(C(=O)N2CCc3c([nH]c4ccccc34)C2)cc2nc(-c3ccccc3)n(C)c12 3.91%
COCC(=O)N1CCC2(CCCN(Cc3ccccc3)C2)CC1 5.89%
N[C@@]1(C(=O)O)CN[C@H](C(=O)O)C1 -18.6%
O=S(=O)(c1ccccc1)N1CCC2(CCCN(Cc3cc(C(F)(F)F)cc(C(F)(F)F)c3)C2)CC1 -2.48%
O=C(O)C[C@H]1c2ccc(C(F)(F)F)cc2S(=O)(=O)N1C1CCCCC1 14.4%
C=CCCCCCCCCCCC/C=C/C(O)COC(C)=O (stereo unspecified) 0.685%
CCCCCCCCCCCCN1[C@@H](CC(=O)OC)c2cc(C(F)(F)F)ccc2S1(=O)=O -0.938%
CCCCCCCC/C=C/CCCCCCCCOP(=O)([O-])OCC[N+](C)(C)C 4.43%
FC(F)(F)c1ccccc1-c1nccc(NCc2cccs2)n1 -7.29%
CC(=O)OCC(OC(C)=O)C(OC(C)=O)C(OC(C)=O)C(OC(C)=O)C(COC(C)=O)OC(C)=O (stereo unspecified) 6.6%
C=CCN(C(C(=O)OC)C(C)C)S(=O)(=O)CCNCc1ccccc1 (stereo unspecified) 10.7%
O=C(NCCc1c[nH]c2ccccc12)c1cccnc1 -6.62%
C1CCN2C[C@@H]3C[C@@H](CN4CCCC[C@@H]34)[C@H]2C1
CN(Cc1ccc2c(c1)CN(C(=O)c1cccc(N(C)C)c1)CCO2)Cc1cc(C2CC2)n[nH]1 16.3%
COc1ccc(-c2nc3cnc(N4CCOCC4)nc3n(C)c2=O)cc1 13.1%
COc1ccc(-c2[nH]ncc2CN2CCOc3c(cc(-c4cccc(OC)n4)cc3OC)C2)cc1 0.414%
CCCc1nc2cccnc2n1C1CCN(C(=O)CC2NC(=O)c3ccccc32)CC1 (stereo unspecified) -0.429%
COc1ccc2c(OC)c3ccoc3nc2c1OC -16.1%
COc1cccc(-c2nccc(NCc3cccnc3)n2)c1 15.5%
NC1=NCCN1CC(=O)O 15%
C[C@@H]([C@H](O)c1ccc(O)cc1)N1CCC(Cc2ccccc2)CC1 14.6%
CC1CC2C3CC(F)C4=CC(=O)C=C[C@@]4(C)[C@@]3(F)C(O)C[C@]2(C)[C@]1(O)C(=O)COC(=O)C(C)(C)C (stereo partly specified) 5.44%
COc1cccc(Cn2c(=O)c(-c3cccc(C#N)c3)nc3cnc(OC)nc32)c1 10.7%
CN(C)CC(C)(C)CNC(=O)c1cnn(-c2ncc3c(n2)-c2ccccc2CC3)c1-c1ccco1 9.1%
O=C(CC1(c2cccc(F)c2)CC(=O)N(Cc2cccnc2)C1=O)N1CCCCCCC1 (stereo unspecified) 9.28%
O=C1C[C@@H]2c3c(cccc3CN1Cc1ccc(Cl)cc1)C[C@@H](O)[C@H]2O -5.14%
CCCCCCCCCCCCCCCCCCO 8.83%
COc1ccccc1CNc1ncncc1-c1cccc(NS(C)(=O)=O)c1 -8.62%
COCC(=O)N1CCC2(CC1)CCN(C(c1ccccc1)c1ccccc1)CC2 -0.451%
CC(C)N1C[C@@H](Sc2ccccn2)C[C@H]1C(=O)Nc1ccc2c(c1)Nc1ccccc1CC2 7.12%
CC(C)C[C@@H](CO)N1CCN(CCc2ccccc2)CCC1=O 0.539%
CCN(CC)CCN(C)C(=O)c1ccc(-c2ccccc2)nc1N(C)C -5.41%
COc1cccc(Cn2c(=O)c(C)nc3cnc(OCc4ccccc4)nc32)c1 -6.5%
O=c1c(-c2ccc(F)cc2)nc2cnc(N3CCOCC3)nc2n1C[C@H]1CCCO1 14.8%
O=C(N[C@@H]1c2ccccc2C2(CCN(C(=O)c3ccc4c(c3)OCCO4)CC2)[C@H]1O)c1cccnc1 1.07%
COCCn1c(=O)c(-c2cccs2)nc2cnc(Oc3cccc(Cl)c3)nc21 4.1%
CCOC(=O)C12CC1/C(=N\O)c1ccccc1O2 (stereo unspecified) 10.2%
N#Cc1cccc(-c2nc3cnc(Nc4ccccc4)nc3n(C[C@H]3CCCO3)c2=O)c1 40.7%
C=C1C[C@@]23C[C@@]1(O)CCC2[C@@]12C=CC(O)[C@](C)(C(=O)O1)C2C3C(=O)O (stereo partly specified) -1.24%
CN1CCN(c2ncc3ncc(=O)n(-c4ccccc4)c3n2)CC1 -1.9%
COc1ccc(CN2CC[C@H]3C=CC[C@@H](C(=O)NCc4cccnc4)[C@H]3C2=O)cc1OC 7.32%
COc1ccc(CNc2cc(-c3cccc(C#N)c3)ncn2)c(OC)c1 -18.9%
Cc1ccc(-c2ccnc(-n3ncc(C(=O)N4CCCCC4c4cccnc4)c3C3CC3)n2)o1 (stereo unspecified) 9.3%
C=C1/C(=C\C=C2/CCC[C@]3(C)C([C@H](C)CCCC(C)(C)O)CC[C@@H]23)C[C@@H](O)C[C@@H]1O (stereo partly specified) 16.2% [at 15.3 µM]
CS(=O)(=O)c1ccc(Cn2c3c(c4cc(F)cc(F)c42)CCC[C@H]3CC(=O)O)cc1 -11.5%
CCCCC(C)(C)[C@H](O)/C=C/[C@H]1[C@H](O)CC(=O)[C@@H]1C/C=C\CCCC(=O)O -16.9% [at 15.3 µM]
Clc1nccc2c1ccc1ccccc12 19.6% [at 75.8 µM]
CC1(O)CC2C(CC1O)C2(C)C (stereo unspecified) -10%
CN(C)c1ncnc2ccc(-c3ccccc3C#N)cc12 29.8%
O=C(O)COC(=O)Cc1ccccc1Nc1c(Cl)cccc1Cl 17.4% [at 75.8 µM]
OC1(c2ccc(Cl)c(C(F)(F)F)c2)CCN(CCCC(c2ccc(F)cc2)c2ccc(F)cc2)CC1 7.31%
C[C@@H]1C[C@H]2[C@@H]3CCC4=CC(=O)C=C[C@]4(C)[C@@]3(F)[C@@H](O)C[C@]2(C)[C@@]1(O)C(=O)CO 35.2%
c1ccc(CN2CCC3(CCc4ccccc43)CC2)cc1
CC(CC(c1ccccc1)c1ccccc1)NC(C)(C)C (stereo unspecified) 22.5%
Cc1c(C(=O)N2CCCCCC2)sc2ncnc(NCC3CCCO3)c12 (stereo unspecified) 9.68%
COCC(=O)N1CCC2(CC1)CN(c1ccncc1)C2 5.94%
OCC1O[C@@H](OC2C(O)C(CO)O[C@@]2(CO)O[C@@H]2OC(CO)C(O)C(O)C2O)C(O)C(O)C1O (stereo partly specified) 23.7%

Source: PubChem BioAssay AID1645882 (National Center for Advancing Translational Sciences (NCATS), 2021)
